# PubChem BioAssay (NCI)
#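 Exposure lasted 48 hours, with cells grown in 96-well plates and compounds tested at five concentrations. GI50 is the concentration that inhibits growth by half. TGI: concentration producing complete growth inhibition.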
# Tested on: NCI-H322M lung
# Assay: NCI-60 cell line screen, 48 h
Structure (SMILES),GI50 [µM],TGI [µM]
CC(=C(c1ccc(OCCCN(C)C)cc1)c1ccc(OCCCN(C)C)cc1)c1ccccc1,0.775,3.27
COc1ccc(C(=O)/C=C/c2cccc(Cl)c2Cl)cc1S(N)(=O)=O,2.8,11.7
O=C(Nc1nc2ccc([N+](=O)[O-])cc2s1)Nc1ccccc1F,10.6,80.6
